As usually defined, the stoichiometry N is the number of molecules, sites or subunits per partner or assembly.

Results on one protein are retold here after PMC9876986, “Direct cell extraction of membrane proteins for structure–function analysis” (Scientific Reports, 2023).

This data set deals with the molecule itself. Kind of data set: cryo-EM structure; Salipro-mPANX1 nanoparticles, 2.5 mg/ml, with 0.5 mM Fos-Choline 8; C7 symmetry; 3.1 Å.

B1: mouse pannexin1 (mPANX1), tags cleaved off, in Salipro (saposin A-lipid) nanoparticles (natural protein)
chain: not shown
notes: construct FLAG-3C-mPANX1-3C-GFP-StrepII, cut at both PreScission sites; The particle also holds saposin A and endogenous lipids of the cells; also called Salipro-mPANX1; source: Expi293 cells, transiently transfected; not shown: FLAG, N-terminal, cleaved; GFP, C-terminal, cleaved; Twin Strep, C-terminal, cleaved
For B1, the “stoichiometry N” value came to 7.
